The other results are listed elsewhere or left out. Values were computed here from the reads of four pooled replicates and scatter widely.
These sequences were tested against T1, Pho4 (S. cerevisiae) (UniProt P07270) (assay: relative binding free energy (BET-seq); higher = weaker binding). Details: reference: library average.
T1 sequence: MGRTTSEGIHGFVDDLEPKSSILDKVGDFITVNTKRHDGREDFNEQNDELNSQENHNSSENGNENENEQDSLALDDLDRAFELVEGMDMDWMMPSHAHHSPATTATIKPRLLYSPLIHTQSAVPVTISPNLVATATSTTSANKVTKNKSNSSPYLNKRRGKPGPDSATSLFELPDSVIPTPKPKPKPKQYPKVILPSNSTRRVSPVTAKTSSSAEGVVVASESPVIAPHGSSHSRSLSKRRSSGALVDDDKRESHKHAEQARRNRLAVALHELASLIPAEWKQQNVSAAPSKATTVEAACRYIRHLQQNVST

Sequence | relative binding free energy
TGTGTCACGTGAAATC | 0.34 kcal/mol
TTATGCACGTGGAAAT | 0.18 kcal/mol
TGCTGCACGTGTGGAG | 0.07 kcal/mol
AATATCACGTGAGTTT | 0.24 kcal/mol
TGTATCACGTGCTGTT | 0.01 kcal/mol
TTCCACACGTGTTGGT | 0.07 kcal/mol
TCAGGCACGTGGTATT | -0.11 kcal/mol
GATAACACGTGATGGT | 0.14 kcal/mol
AGTTTCACGTGGTAAC | 0.38 kcal/mol
TTAGCCACGTGATGGT | 0.02 kcal/mol
GCGTTCACGTGGGATA | 0.21 kcal/mol
ATACTCACGTGTATGG | 0.04 kcal/mol
TTTAGCACGTGGCTGC | -0.09 kcal/mol
GGGTCCACGTGATATG | 0.1 kcal/mol
AGGTACACGTGGAAAG | 0.29 kcal/mol
GTCGTCACGTGTTGGC | 0.07 kcal/mol
TTTATCACGTGGTCGT | 0.04 kcal/mol
GGTTGCACGTGTGCTT | 0.04 kcal/mol
TAGGGCACGTGGCAGG | -0.19 kcal/mol
TTGTGCACGTGGATCG | 0.04 kcal/mol
GAGCGCACGTGGTGAT | -0.09 kcal/mol
ATGAGCACGTGGTTAA | -0.1 kcal/mol
AAGGACACGTGGGTAT | -0.08 kcal/mol
GTGGGCACGTGGGTAC | -0.17 kcal/mol
GGTGTCACGTGGACGG | 0.2 kcal/mol

Sequence | relative binding free energy
TTGATCACGTGAGTTC | 0.41 kcal/mol
CTGTGCACGTGTTGTA | -0.11 kcal/mol
GAGTTCACGTGGGCGG | 0.22 kcal/mol
CTCGTCACGTGTTATG | 0.19 kcal/mol
CTTTGCACGTGGAGGT | 0.06 kcal/mol
CGTTACACGTGAGTGA | 0.21 kcal/mol
ACAGGCACGTGTGGGG | -0.11 kcal/mol
TATAGCACGTGCAGTG | -0.15 kcal/mol
GGGGGCACGTGGCGAT | -0.02 kcal/mol
GATTTCACGTGTAGTA | 0.37 kcal/mol
GTTGGCACGTGTAAGA | -0.03 kcal/mol
CTGGACACGTGGGGTA | -0.1 kcal/mol
CGGGTCACGTGTGGTA | 0.16 kcal/mol
TGGTACACGTGCGGTG | 0.1 kcal/mol
GATTTCACGTGTCTTG | 0.45 kcal/mol
TGTGTCACGTGGGCAT | -0.14 kcal/mol
TACTGCACGTGTGTTG | 0 kcal/mol
GTATTCACGTGCTAGG | 0.16 kcal/mol
AGATGCACGTGGTGGG | -0.09 kcal/mol
TAGTTCACGTGCGGTA | 0.22 kcal/mol
CTTGACACGTGCTGTG | -0.11 kcal/mol
GCACGCACGTGGGGTG | -0.43 kcal/mol
AACGGCACGTGGGAGA | -0.17 kcal/mol
TTCGTCACGTGCGTGT | -0.09 kcal/mol
TTATCCACGTGGGTGC | -0.06 kcal/mol

Sequence | relative binding free energy
TGTTTCACGTGGGACA | 0.2 kcal/mol
GTACACACGTGGGTTA | -0.01 kcal/mol
GACGTCACGTGGGGGA | 0.05 kcal/mol
CGAGTCACGTGGTGCA | 0.04 kcal/mol
GTGGGCACGTGGACGG | -0.07 kcal/mol
TTATTCACGTGTACAT | 0.17 kcal/mol
TAGATCACGTGTATGT | 0.15 kcal/mol
TAAGGCACGTGGCCGG | -0.3 kcal/mol
TTAGGCACGTGAGTGC | 0.02 kcal/mol
TTAGACACGTGGGCTT | -0.19 kcal/mol
TGGGTCACGTGGAGGA | 0.12 kcal/mol
AATAACACGTGATTGT | 0.07 kcal/mol
ATTTGCACGTGTAATA | 0 kcal/mol
GGGTGCACGTGAGCAT | 0.25 kcal/mol
CAGTACACGTGTGGGC | 0.17 kcal/mol
AAGAACACGTGGGGGT | -0.08 kcal/mol
GGTGGCACGTGGCTGC | -0.14 kcal/mol
GATTGCACGTGTCAGT | 0.06 kcal/mol
GCGGGCACGTGGGGTC | -0.23 kcal/mol
CGTGTCACGTGGGCTA | -0.07 kcal/mol
GTGAGCACGTGGGTGG | -0.19 kcal/mol
GCGGGCACGTGTCGGG | -0.19 kcal/mol
AGAAACACGTGTGGCG | 0.12 kcal/mol
CGTCTCACGTGTTGTT | 0.29 kcal/mol
TACATCACGTGATGTT | 0.25 kcal/mol

Sequence | relative binding free energy
ATTGCCACGTGTATTA | 0.12 kcal/mol
GGATGCACGTGGGCCG | -0.12 kcal/mol
AGGTACACGTGTTAGA | 0.08 kcal/mol
TACATCACGTGTTGTG | -0.01 kcal/mol
GTCTTCACGTGGATTG | 0.43 kcal/mol
TGGTGCACGTGATCAT | -0.03 kcal/mol
GGGGGCACGTGTAAGT | 0.1 kcal/mol
TGTATCACGTGGGTAA | 0.05 kcal/mol
TGCTGCACGTGCGTTG | -0.1 kcal/mol
TAAGGCACGTGTTGAG | -0.03 kcal/mol
ATTGTCACGTGATTGT | 0.19 kcal/mol
TTTTTCACGTGCTTTC | 0.28 kcal/mol
GGTTCCACGTGGGGAT | -0.02 kcal/mol
AGATTCACGTGTAGAT | 0.35 kcal/mol
GGTCGCACGTGTTTAT | 0.12 kcal/mol
TGGGGCACGTGTTGAA | -0.03 kcal/mol
GAGTTCACGTGCTTGA | 0.36 kcal/mol
TTTGTCACGTGTGGTC | 0.15 kcal/mol
TTTATCACGTGGGCGT | 0.1 kcal/mol
TTGTGCACGTGCGAGT | -0.08 kcal/mol
GTAAGCACGTGGGGGT | -0.21 kcal/mol
GTTATCACGTGGAAGG | 0.36 kcal/mol
AGTTGCACGTGGACAG | -0.07 kcal/mol
ATAAGCACGTGGTGCG | -0.07 kcal/mol
TCAGTCACGTGTTTTT | 0.07 kcal/mol

Sequence | relative binding free energy
TTAGTCACGTGGGTCA | 0.04 kcal/mol
TTAGTCACGTGACGTA | 0.17 kcal/mol
AGTTGCACGTGCTTAG | -0.16 kcal/mol
TGGTTCACGTGTTCGG | 0.34 kcal/mol
AGACTCACGTGGAGTT | 0.3 kcal/mol
GGGTTCACGTGCGCTA | 0.27 kcal/mol
TGATGCACGTGAGGCT | 0.02 kcal/mol
ATGTACACGTGGGGCT | -0.06 kcal/mol
CAGGTCACGTGAGGTT | 0.31 kcal/mol
GTTGACACGTGTTATT | 0.11 kcal/mol
CGAGTCACGTGAGTTT | 0.39 kcal/mol
TCGGGCACGTGGGCCG | -0.33 kcal/mol
TGGCTCACGTGGCGTA | 0.26 kcal/mol
TCACTCACGTGGGGGG | -0.08 kcal/mol
TTCCTCACGTGTGTGT | 0.19 kcal/mol
AATGTCACGTGGCGGT | 0.03 kcal/mol
GATATCACGTGGGGGT | 0.08 kcal/mol
GGTTTCACGTGACACG | 0.53 kcal/mol
GTGCTCACGTGATATG | 0.52 kcal/mol
AAGGTCACGTGGGCCG | -0.08 kcal/mol
GTTGACACGTGAATTT | 0.32 kcal/mol
GTGCGCACGTGAGTAT | 0.12 kcal/mol
GAGTTCACGTGCGAGT | 0.39 kcal/mol
TGTGACACGTGTAGGT | -0.03 kcal/mol
TTTGCCACGTGCGTTT | -0.07 kcal/mol

Sequence | relative binding free energy
ACTTACACGTGTAGGT | 0.15 kcal/mol
AGGATCACGTGCAGTG | 0.22 kcal/mol
AAGTGCACGTGAGGGC | 0.15 kcal/mol
TCATGCACGTGCGTGT | 0 kcal/mol
ATGTTCACGTGTTAGA | 0.31 kcal/mol
CGGGTCACGTGTATTT | 0.15 kcal/mol
GGTAGCACGTGATGCG | 0 kcal/mol
AGCTTCACGTGTGATG | 0.2 kcal/mol
AGTTTCACGTGAAAAG | 0.46 kcal/mol
TCGTTCACGTGAGTTC | 0.43 kcal/mol
ATTTACACGTGTAGCG | 0.22 kcal/mol
TTTCGCACGTGGAAGG | -0.03 kcal/mol
TCGTTCACGTGCATGG | 0.29 kcal/mol
TGCTACACGTGTAGGG | 0.07 kcal/mol
TGTCGCACGTGAGTAG | -0.01 kcal/mol
AGTGGCACGTGATTGG | 0.04 kcal/mol
TACTGCACGTGTATGG | -0.04 kcal/mol
ACGCGCACGTGGGGTG | -0.39 kcal/mol
GGGTTCACGTGGTCTA | 0.2 kcal/mol
TTGGACACGTGATCAT | 0.31 kcal/mol
GATCACACGTGTTGTT | 0.09 kcal/mol
